Laboratory results reported in PubChem BioAssay AID1347073 (National Center for Advancing Translational Sciences (NCATS), 2019).
Among all 45,000 compounds or so, about 200 (0.44%) were called active. Roughly 7% stayed inconclusive and do not appear here. Calls follow the shape of the dose curve; as a rule, active = well fitted activation curve with a large enough effect; inconclusive = small, poorly fitted or top-dose-only effect; inactive = no such curve, though single readings can be large or run the other way. The list shows a part of the results.

Experiment: qHTS of TDP-43 Inhibitors: NCGC Sytravon Library Screen; also: 0% is about no effect; nearly all actives have a fitted effect of over 55% in size
Settings: yeast TDP-43 toxicity rescue, BacTiter-Glo growth, 24 h; series mostly up to 46.1 µM; growth rescue (activation): at the top concentration
Outline: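 TDP-43-expressing yeast, pregrown in raffinose, seeded at OD600 0.02 in galactose medium with compound for 24 hr at 30 deg C. Growth read by BacTiter-Glo luminescence, so rescue of toxicity appears as activation.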

Q: With `COc1ccc(COC(=O)NNC(=O)c2ccccc2Cl)cc1` as the compound, how does the “growth rescue (activation)” value read?
A: inactive: -19.9%

Q: For `CC(C)c1ccc(/C=N/n2cnnc2)cc1`, which “growth rescue (activation)” value is on record?
A: inactive: 2.1%

Q: For `O=S(=O)(c1ccc(F)cc1)c1nc(-c2ccccc2)oc1N1CCOCC1`, which “growth rescue (activation)” value is on record?
A: inactive: 18.9%

Q: Which “growth rescue (activation)” value does the source give for `COc1ccc(C(NC(=O)c2cccc(F)c2)c2ccccc2)cc1` (stereo not drawn) here?
A: inactive: 8.13%

Q: For `CC(=O)N1CCN(Cc2nc(-c3cccc(Cl)c3)no2)CC1`, which “growth rescue (activation)” value is on record?
A: inactive: -1.67%

Q: With `COc1ccc(C(CNS(=O)(=O)c2cccc(F)c2)N2CCCC2)cc1` (stereo not drawn) as the compound, how does the “growth rescue (activation)” value read?
A: inactive: 13.1%

Q: With `CCCCn1c(=O)[nH]c(=O)c2c1nc(-c1ccccc1OC(F)F)n2C` as the compound, how does the “growth rescue (activation)” value read?
A: inactive: 11.5%

Q: For `O=C(NCCc1ccccc1)c1ccc2c(c1)N(Cc1ccccc1)C(=O)c1ccccc1S2(=O)=O`, which “growth rescue (activation)” value is on record?
A: inactive: 14%

Q: Which “growth rescue (activation)” value does the source give for `Cc1nc2ccccc2c(=O)n1CCc1ccc(O)cc1` here?
A: inactive: -8.51%

Q: Which “growth rescue (activation)” value does the source give for `CCOc1ccc(NS(=O)(=O)c2cc(NC(=O)c3cccc(C)c3)ccc2Cl)cc1` here?
A: inactive: -5.43%

Q: For `CCC(C)N(C(=O)c1csnn1)C(C(=O)NCc1ccc(F)cc1)c1ccccc1` (stereo not drawn), which “growth rescue (activation)” value is on record?
A: inactive: -6.25%

Q: With `Cc1ccc(C(=O)CCNc2ccc(Cl)cc2)o1` as the compound, how does the “growth rescue (activation)” value read?
A: inactive: 12.4%

Q: For `Cc1ccc(/C=N/N2CCN(Cc3ccccc3)CC2)cc1`, which “growth rescue (activation)” value is on record?
A: inactive: 2.78%

Q: Which “growth rescue (activation)” value does the source give for `CN(C)c1ccc(/C=C2/SC(=O)N(CCN=C3NS(=O)(=O)c4ccccc43)C2=O)cc1` here?
A: inactive: 9.41%

Q: With `O=C(CN1CCN(Cc2ccc(F)cc2Cl)C1=O)NCc1cccs1` as the compound, how does the “growth rescue (activation)” value read?
A: inactive: 10.3%

Q: Which “growth rescue (activation)” value does the source give for `Fc1ccc(-c2n[nH]c(=S)n2/N=C/c2c[nH]c3ccccc23)cc1` here?
A: inactive: 7.12%

Q: With `CC(=O)c1ccccc1NC(=O)CCNC(=O)c1ccco1` as the compound, how does the “growth rescue (activation)” value read?
A: inactive: 14.5%

Q: Which “growth rescue (activation)” value does the source give for `COCCCNC(=O)CSC1=Nc2ccccc2C2=NC(Cc3c[nH]c4ccccc34)C(=O)N12` (stereo not drawn) here?
A: inactive: 10.1%

Q: With `COc1ccc(NC(=O)CN(C)S(=O)(=O)c2ccc(Br)s2)cc1OC` as the compound, how does the “growth rescue (activation)” value read?
A: inactive: -8.17%

Q: For `CSc1ccccc1NS(=O)(=O)c1ccccc1`, which “growth rescue (activation)” value is on record?
A: inactive: 2.73%

Q: For `O=C(/C=C/c1ccccc1)OCC(=O)c1c[nH]c2ccccc12`, which “growth rescue (activation)” value is on record?
A: inactive: 15.7%

Q: With `Cc1ccc(NC(=O)CSc2n[nH]c(=O)n2C2CC2)cc1S(=O)(=O)N1CCOCC1` as the compound, how does the “growth rescue (activation)” value read?
A: inactive: -2.12%

Q: With `O=C(CN1C(=O)NC2(CCCC2)C1=O)N1CCN(S(=O)(=O)c2ccccc2)CC1` as the compound, how does the “growth rescue (activation)” value read?
A: inactive: -3.3%

Q: With `Cc1sc2ncnc(N3CCN(S(=O)(=O)c4ccc(Br)cc4)CC3)c2c1C` as the compound, how does the “growth rescue (activation)” value read?
A: inactive: 10.7%

Q: For `COc1ccc(C2(NC(C)=O)CCN(C(=O)c3ccco3)CC2)cc1`, which “growth rescue (activation)” value is on record?
A: inactive: 36.7%

Q: With `O=C(COc1ccc2c(c1)OCO2)Nc1nncs1` as the compound, how does the “growth rescue (activation)” value read?
A: inactive: -7.71%

Q: Which “growth rescue (activation)” value does the source give for `C=CCC(c1ccccc1)N(C(C)=O)c1ccco1` (stereo not drawn) here?
A: inactive: -6.5%

Q: With `Cc1cc(C)cc(N(CC(=O)NCC2CCCO2)C(=O)CCC(=O)Nc2nccs2)c1` (stereo not drawn) as the compound, how does the “growth rescue (activation)” value read?
A: inactive: -4.76%

Q: For `COc1ccccc1OC(C)C(=O)N1CC(=O)Nc2ccccc21` (stereo not drawn), which “growth rescue (activation)” value is on record?
A: inactive: 0.578%

Q: With `CC(=O)Nc1ccc(NC(=O)c2ccc(OCc3c(C)noc3C)cc2)cc1` as the compound, how does the “growth rescue (activation)” value read?
A: inactive: -6.14%

Q: With `CC(=O)c1cccc(NC(=O)c2cc(-c3ccco3)on2)c1` as the compound, how does the “growth rescue (activation)” value read?
A: inactive: 17.3%

Q: Which “growth rescue (activation)” value does the source give for `CCCn1c(N)c(N(CCOC)C(=O)c2ccccc2F)c(=O)[nH]c1=O` here?
A: inactive: -5.56%

Q: For `Cc1ccc(S(=O)(=O)c2cc3c(=O)n4ccccc4nc3n(C3CCCC3)c2=N)cc1`, which “growth rescue (activation)” value is on record?
A: inactive: -7.88%

Q: For `CCOC(=O)C1(C)CCCN1C(=O)c1ccc(C(F)(F)F)nc1C` (stereo not drawn), which “growth rescue (activation)” value is on record?
A: inactive: 0.611%

Q: Which “growth rescue (activation)” value does the source give for `CC(C)N1CCN(Cc2nc(-c3ccccc3)cs2)CC1CCO` (stereo not drawn) here?
A: inactive: -5.17%

Q: For `COC(=O)[C@H](CCSC)NC(=O)c1cc2c(cn1)[nH]c1ccccc12`, which “growth rescue (activation)” value is on record?
A: inactive: -6.36%

Q: Which “growth rescue (activation)” value does the source give for `O=C(/C=C/c1ccc([N+](=O)[O-])cc1)Nc1ncc([N+](=O)[O-])s1` here?
A: inactive: -5.18%

Q: With `N#Cc1ccc(C(=O)NNC(=O)c2cccc(S(=O)(=O)N3CCOCC3)c2)cc1` as the compound, how does the “growth rescue (activation)” value read?
A: inactive: -28.7%

Q: With `Cc1cc(C)cc(-n2c3ccc(NC(=S)NC4CCCCC4)cc3c(=O)n2C)c1` as the compound, how does the “growth rescue (activation)” value read?
A: inactive: 8.75%

Q: Which “growth rescue (activation)” value does the source give for `CCC(C)NC(=O)C1CCN(S(=O)(=O)c2cccc3nonc23)CC1` (stereo not drawn) here?
A: inactive: 9.65%

Q: Which “growth rescue (activation)” value does the source give for `CC(=O)Nc1ccc(S(=O)(=O)NCCC(=O)Nc2ccc(C)c(F)c2)cc1` here?
A: inactive: -14.3%

Q: For `CCN(CC)C(=O)c1ccccc1NC(=O)c1ccccc1`, which “growth rescue (activation)” value is on record?
A: inactive: -3.11%

Q: For `CNC(=O)COC(=O)COc1ccc2c(C)cc(=O)oc2c1`, which “growth rescue (activation)” value is on record?
A: inactive: 5.94%

Q: Which “growth rescue (activation)” value does the source give for `O=C(COC(=O)c1cc(Cl)ccc1Cl)NCCN1C(=O)CSC1=O` here?
A: inactive: 10.7%

Q: Which “growth rescue (activation)” value does the source give for `COc1ccc(NC(=O)Cc2nnc(SCC(=O)Nc3nccs3)n2C)cc1` here?
A: inactive: -6.23%

Q: With `CCN(CC)c1ccc(C(=O)OCC(=O)Nc2sccc2C#N)cc1` as the compound, how does the “growth rescue (activation)” value read?
A: inactive: 9.34%

Q: Which “growth rescue (activation)” value does the source give for `CSCC[C@H](Nc1ncnc2sc(C)c(C)c12)C(=O)O` here?
A: inactive: 8.12%

Q: For `O=C(Cc1cccs1)N1CCN(c2cccc(Cl)c2)CC1`, which “growth rescue (activation)” value is on record?
A: inactive: 3.82%

Q: Which “growth rescue (activation)” value does the source give for `COc1ccc(/C=C(/NC(=O)c2ccccc2)C(=O)N2CCOCC2)cc1OC` here?
A: inactive: 17.8%

Q: With `COc1cc(C)ccc1S(=O)(=O)NC(=O)Cn1nnc(COc2ccc3c(c2)CCCC3)c1C` as the compound, how does the “growth rescue (activation)” value read?
A: inactive: 8.93%

Q: Which “growth rescue (activation)” value does the source give for `Cc1ccc(S(=O)(=O)N(CC(=O)N=Nc2c(O)[nH]c3ccccc23)c2ccc(C)c(C)c2)cc1` here?
A: inactive: 8.13%

Q: For `CC(=O)Nc1ccc(N(CC(=O)NC2CCCC2)C(=O)CCC(=O)Nc2cc(C)on2)cc1`, which “growth rescue (activation)” value is on record?
A: inactive: 11.4%

Q: With `COCCNC(=O)Cn1c(=O)n(CCCCCC(=O)NCc2ccccc2Cl)c(=O)c2sccc21` as the compound, how does the “growth rescue (activation)” value read?
A: inactive: 0.201%

Q: For `CC(=O)Nc1ccc(NC(=O)COC(=O)COc2ccc3ccccc3c2)cc1`, which “growth rescue (activation)” value is on record?
A: inactive: 5.46%

Q: Which “growth rescue (activation)” value does the source give for `CC(C)(C)c1ccc(C(=O)NC(=S)NCc2cccnc2)cc1` here?
A: inactive: 20.1%

Q: Which “growth rescue (activation)” value does the source give for `O=C(c1ccc2ccccc2n1)N1CCN(Cc2c(F)cccc2Cl)CC1` here?
A: inactive: 22.8%

Q: With `CNc1c(NS(=O)(=O)c2ccc(Cl)cc2)c(=O)oc2ccccc12` as the compound, how does the “growth rescue (activation)” value read?
A: inactive: 3.29%

Q: Which “growth rescue (activation)” value does the source give for `Cc1cccc(NC(=S)N2CCN(Cc3ccccc3)CC2)c1C` here?
A: inactive: 28.5%

Q: Which “growth rescue (activation)” value does the source give for `COc1ccc(CN(C(=O)c2cc3ccccc3oc2=O)C2CCS(=O)(=O)C2)cc1OC` (stereo not drawn) here?
A: inactive: -7.69%

Q: With `CS(=O)(=O)c1ccc(NS(=O)(=O)c2ccc3ccccc3c2)cc1` as the compound, how does the “growth rescue (activation)” value read?
A: inactive: -6.5%

Q: With `O=C(CCCc1cccs1)Nc1nc(-c2ccc(F)cc2)cs1` as the compound, how does the “growth rescue (activation)” value read?
A: inactive: 6.21%

Q: Which “growth rescue (activation)” value does the source give for `Cc1ccc(NC2=C/C(=N/S(=O)(=O)c3cccs3)c3ccccc3C2=O)cc1` here?
A: inactive: -17.4%

Q: With `COc1ccc(CCn2cc(C#N)c(=O)[nH]c2=O)cc1OC` as the compound, how does the “growth rescue (activation)” value read?
A: inactive: 2.09%

Q: Which “growth rescue (activation)” value does the source give for `Cc1cccc(C)c1NC(=O)c1cccc(N2C(=O)C3CCC(C)CC3C2=O)c1` (stereo not drawn) here?
A: inactive: 22.4%

Q: Which “growth rescue (activation)” value does the source give for `CCN1CCN(c2nc(-c3ccccc3)c3ccccc3n2)CC1` here?
A: inactive: -0.091%

Q: With `CC(C)c1nnc(NC(=O)C2CCCN2C(=O)Nc2cccc(Cl)c2)s1` (stereo not drawn) as the compound, how does the “growth rescue (activation)” value read?
A: inactive: -4.28%

Q: For `CCC(=O)OCCNc1nc(-c2ccccc2)nc2ccccc12`, which “growth rescue (activation)” value is on record?
A: inactive: 26.6%

Q: For `COc1cccc(C(=O)COc2ccccc2N2C(=O)C3C4C=CC(C4)C3C2=O)c1` (stereo not drawn), which “growth rescue (activation)” value is on record?
A: inactive: -1.46%
